Holding throughout (assay): Primary Screen for Target Class Profiling of Small Molecule Inhibitors of Methyltransferases
For experiment [1], the target named is Glycine N-methyltransferase (Homo sapiens) (UniProt Q14749). The settings on record: purified enzyme, MTase-Glo SAH luminescence; measured here: GNMT inhibition; at 40 µM; stronger effect = lower value. The gist of the method:
(§1)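 Each enzyme was reacted with SAM and its substrate, with compounds tested once at 40 uM; SAH formed was read by MTase-Glo luminescence.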

Experiment [2] concerns the target Guanidinoacetate N-methyltransferase (Homo sapiens) (UniProt Q14353). The following applies: purified enzyme, MTase-Glo SAH luminescence; measured here: GAMT inhibition; at 40 µM; stronger effect = lower value. The gist of the method:
as §1

Experiment [3] concerns the target Histamine N-methyltransferase (Homo sapiens) (UniProt P50135). The following applies: purified enzyme, MTase-Glo SAH luminescence; measured here: HNMT inhibition; at 40 µM; stronger effect = lower value. The gist of the method:
as §1

Experiment [4] concerns the target Nicotinamide N-methyltransferase (Homo sapiens) (UniProt P40261). The following applies: purified enzyme, MTase-Glo SAH luminescence; measured here: NNMT inhibition; at 40 µM; stronger effect = lower value. The gist of the method:
as §1

Experiment [5] has as its target Phenylethanolamine N-methyltransferase (Homo sapiens) (UniProt P11086). The following applies: purified enzyme, MTase-Glo SAH luminescence; measured here: PNMT inhibition; at 40 µM; stronger effect = lower value. The gist of the method:
as §1

The list shows a part of the results. Shown are side measurements of this screen, not its main read-out; they come without a call.
% is scaled to controls: 0 for no effect and ±100 for the full control effect.

As to `COc1ccc(-c2cc(=O)oc3cc(OC(C(=O)O)c4ccccc4)ccc23)cc1` (stereo not given), the activity change, negative = inhibition was -17% in experiment [1]; 0% in experiment [2]; 9.09% in experiment [3]; 8.9% in experiment [4]; -0.752% in experiment [5].

As to `CC1(C(=O)NC2CCCCC2)Cn2c(cc3sccc32)C(=O)N1Cc1cccnc1` (stereo not given), the activity change, negative = inhibition was 2.75% in experiment [1]; -2.79% in experiment [2]; 8.17% in experiment [3]; 4.93% in experiment [4]; 2.05% in experiment [5].

As for `COc1cccc(C2c3cccn3-c3sc4c(c3CN2C(=O)Nc2ccc(C)c(F)c2)CCCC4)c1` (stereo not given), the activity change, negative = inhibition was -0.132% in experiment [1]; 2.59% in experiment [2]; 1.83% in experiment [3]; 4.34% in experiment [4]; 9.25% in experiment [5].

Take `CCCSCCCNC(=O)c1cc2n(n1)CC(C)(C(=O)NC1CCCCC1)N(C)C2=O` (stereo not given): the activity change, negative = inhibition is -1.51% in experiment [1]; 2.02% in experiment [2]; -5.84% in experiment [3]; -3.92% in experiment [4]; -5.3% in experiment [5].

Regarding `C[C@]12C[C@@H](O)[C@@H]3C[C@@]1(O[C@@H]1O[C@H](CO)[C@@H](O)[C@H](O)[C@H]1O)[C@]3(COC(=O)c1ccccc1)C(=O)O2`, the activity change, negative = inhibition in experiment [1] was 4.86%; in experiment [2], 3.45%; in experiment [3], 10.2%; in experiment [4], -9.61%; in experiment [5], 8.01%.

In the case of `CCN1C(=O)c2c(C(=O)NCc3ccccc3F)ncn2CC1(C)C(=O)NC1CCCC1` (stereo not given), the activity change, negative = inhibition in experiment [1] is -4.84%; in experiment [2], -0.568%; in experiment [3], 6.24%; in experiment [4], 0.679%; in experiment [5], 0.917%.

Regarding `NC(=O)[C@@H](Cc1c[nH]c2ccccc12)NC(=O)[C@@H]1CN(S(=O)(=O)c2ccccc2)CCN1C(=O)C1CCNCC1`, the activity change, negative = inhibition was -6.31% in experiment [1]; -3.65% in experiment [2]; -4.32% in experiment [3]; -3.3% in experiment [4]; -3.37% in experiment [5].

Consider `CCOc1cccc(NC(=O)c2ccc(N3CCCC3)c(C(F)(F)F)c2)c1`, for which the activity change, negative = inhibition in experiment [1] is 0.87%; in experiment [2], 0.504%; in experiment [3] it was 2.55%; in experiment [4], -26.8%; in experiment [5], -10.5%.

Regarding `CCCS(=O)(=O)N1CCCC1C(=O)Nc1ccccc1-c1ccc(OC)cc1` (stereo not given), the activity change, negative = inhibition is -2.17% in experiment [1]; 1.92% in experiment [2]; -0.862% in experiment [3]; -3.57% in experiment [4]; 17.9% in experiment [5].

For the compound `CCCn1c(=O)c2ccc(C(=O)NC(C)C)cc2n2c(=O)n(Cc3c(F)cccc3Cl)nc12`, the activity change, negative = inhibition in experiment [1] is 3.48%; in experiment [2], 1.81%; in experiment [3], 10.5%; in experiment [4] it was -0.425%; in experiment [5], 5.34%.

On to `Cn1c(=O)n(C)c2cc(S(=O)(=O)N3CCN(c4cccc(Cl)c4)CC3)ccc21`, for which the activity change, negative = inhibition in experiment [1] was 5.14%; in experiment [2] it was 0%; in experiment [3], 8.31%; in experiment [4], 10.1%; in experiment [5], 3.07%.

`Cc1ccccc1NC(=O)CSc1nnc2n(CC(C)C)c(=O)c3cc(F)ccc3n12`: the activity change, negative = inhibition in experiment [1] is -3.23%; in experiment [2], 0.004%; in experiment [3] it was 2.99%; in experiment [4], -4.62%; in experiment [5], 1.35%.

As for `CC1=CC(=O)C2(OC3OC(C)C(O)C(OC(=O)/C=C/c4ccccc4)C3O)C=COC(OC3OC(CO)C(O)C(O)C3O)C12` (stereo not given), the activity change, negative = inhibition in experiment [1] is -1.45%; in experiment [2], -2.73%; in experiment [3], 7.09%; in experiment [4], -14.6%; in experiment [5], -3.41%.

Consider `Cc1cnc(C2CCOCC2)n1CC1CCN(C2CCCCCC2)CC1`, for which the activity change, negative = inhibition in experiment [1] was -2.25%; in experiment [2], -1.69%; in experiment [3] it was -9.91%; in experiment [4] it was 1.67%; in experiment [5] it was 5.26%.

For the compound `O=C(CN1CCCC1)N[C@H]1CC[C@H](Nc2nccc(-c3cccnc3)n2)C1`, the activity change, negative = inhibition is -9.02% in experiment [1]; -3.62% in experiment [2]; -47.3% in experiment [3]; -10.8% in experiment [4]; -14.9% in experiment [5].

In the case of `CN1CCCC(c2nc(CCOCC3CCCC3)no2)C1` (stereo not given), the activity change, negative = inhibition in experiment [1] is -3.87%; in experiment [2] it was -5.27%; in experiment [3] it was -3.72%; in experiment [4], -4.94%; in experiment [5], -7.33%.

Regarding `O=C(Cc1ccccc1)NCC1CN(Cc2ccncc2Cl)CC12CN(c1ccccc1)C2` (stereo not given), the activity change, negative = inhibition is -6.2% in experiment [1]; -0.903% in experiment [2]; 0.157% in experiment [3]; -8.19% in experiment [4]; -5.53% in experiment [5].

`CC(NC(=O)[C@H](Cc1ccccc1)NC(=O)OCc1ccccc1)C(=O)CF` (stereo not given in full): the activity change, negative = inhibition in experiment [1] was -11.2%; in experiment [2], -14.9%; in experiment [3], 9.12%; in experiment [4], -15.5%; in experiment [5], -1.83%.

Consider `CCn1ccc(C(=O)N2CCC(N3C[C@H](O)C[C@H]3C(=O)NCc3cccnc3)CC2)n1`, for which the activity change, negative = inhibition in experiment [1] is -8.05%; in experiment [2], -4.62%; in experiment [3] it was -4.5%; in experiment [4], -7.18%; in experiment [5], -19.6%.

In the case of `O=C(O[C@H]1[C@@H]2C=CO[C@@H](O[C@@H]3O[C@H](CO)[C@@H](O)[C@H](O)[C@H]3O)[C@@H]2[C@@]2(CO)O[C@@H]12)c1ccc(O)cc1`, the activity change, negative = inhibition is 4.09% in experiment [1]; 7.54% in experiment [2]; 5.69% in experiment [3]; -3.75% in experiment [4]; 7.09% in experiment [5].

For `COC(C)(C)CCn1nc(Nc2c(C)cccc2C)c2cnc(Nc3ccc(OCCN4CCCC4)c(F)c3)nc21`, the activity change, negative = inhibition in experiment [1] was -6.06%; in experiment [2] it was -6.85%; in experiment [3], -62.8%; in experiment [4], -36.5%; in experiment [5], -15%.

`CCCCCC(=O)Nc1ccc([C@H]2OCC(=O)N(Cc3nccn3C)[C@@H]2CO)cc1`: the activity change, negative = inhibition in experiment [1] was -8.81%; in experiment [2], -6.21%; in experiment [3], -3.36%; in experiment [4] it was -9.12%; in experiment [5], 7.13%.

As for `CCc1ccc(CNC(=O)Cn2ccc3cc(S(=O)(=O)N4CCCC4)ccc32)cc1`, the activity change, negative = inhibition in experiment [1] was found to be 3.04%; in experiment [2] it was 0.363%; in experiment [3] it was 5.36%; in experiment [4], 2.83%; in experiment [5], 3.17%.

Turning to `COc1ccc(OC)c2c1cc1n2CC(C)(C(=O)NC2CCCCC2)N(C(C)c2ccccc2)C1=O` (stereo not given), the activity change, negative = inhibition was -6.66% in experiment [1]; -1.3% in experiment [2]; 4.49% in experiment [3]; 0.54% in experiment [4]; -1.98% in experiment [5].

As for `O=C(CC1CCOCC1)N1CCN(Cc2ccc(F)cc2F)CC1`, the activity change, negative = inhibition in experiment [1] was 0.239%; in experiment [2], -0.488%; in experiment [3] it was 2.45%; in experiment [4] it was -0.231%; in experiment [5], -1.45%.

`CC1(C(=O)NC2CCCCCC2)Cn2c(cc3sccc32)C(=O)N1Cc1cccs1` (stereo not given): the activity change, negative = inhibition in experiment [1] was 3.32%; in experiment [2], -1.6%; in experiment [3], 4.8%; in experiment [4] it was -2.31%; in experiment [5], 0.364%.

Turning to `CC(C)CCn1c(=O)c2ccccc2n2c(CCC(=O)NCCc3c[nH]c4ccccc34)nnc12`, the activity change, negative = inhibition in experiment [1] is -3.21%; in experiment [2], 1.88%; in experiment [3], 1.55%; in experiment [4] it was -18%; in experiment [5], 0.514%.

`Cc1ccc(S(=O)(=O)c2nnn3c2nc(NCCCOC(C)C)c2cc(Cl)ccc23)cc1C`: the activity change, negative = inhibition in experiment [1] is -7.66%; in experiment [2], -0.416%; in experiment [3], -3.47%; in experiment [4] it was -8.51%; in experiment [5], -10.2%.

As to `CCCN1C(=O)c2c(C(=O)NCCN3CCOCC3)ncn2CC1(C)C(=O)NCCC(C)C` (stereo not given), the activity change, negative = inhibition in experiment [1] came to 2.13%; in experiment [2] it was 0.746%; in experiment [3] it was 9.18%; in experiment [4], 6.63%; in experiment [5] it was 8.14%.
